Test results published in the supplement of paper PMC6828730.
Several values for one entry are separate records, joined by “and”; a condition that tells them apart may be missing. Identical values can stand only once. This is one part of the list. Most values come without repeats; read them as rough.

Legend:
[1] = tested on: hiPSC-derived cardiomyocytes; experiment: time to death of most cells in well after compound addition (days); higher = less cardiotoxic; conditions: screen: 1; 10 µM
[2] = tested on: hiPSC-derived cardiomyocytes; experiment: time to death of most cells in well after compound addition (days); higher = less cardiotoxic; extreme values may be limits of the assay; conditions: 10 µM

Structure (SMILES) | time to death of most cells in well [1] | time to death of most cells in well ([2]; screen: 2) | time to death of most cells in well ([2]; screen: 3) | time to death of most cells in well ([2]; screen: 4)
N#Cc1c(NC(=O)c2cccc3ccccc23)sc2c1CCCC2 [JNK Inhibitor IX] | 3 | 2 | 3.5 | > 7
Cc1c(NC(=O)c2ccc(C(C)(C)C)cc2)cccc1-c1cn(C)c(=O)c(Nc2ccc(C(=O)N3CCOCC3)cc2)n1 | 2 | 2 | 3 | > 7
CN(C)CCOc1ccc(-c2nc(-c3ccncc3)c(-c3ccc4c(c3)CC/C4=N\O)[nH]2)cc1 | 0.5 | 0.5 | 0 | 0.5
CC(C)(C)Cn1c(N)nc2ccc(-c3[nH]c(C(C)(C)C)nc3-c3ccc(F)cc3)nc21 | 2 | 6 | > 7 | > 7
C=CC(=O)Nc1cccc(Nc2nc(Nc3ccc(Oc4ccnc(C(=O)NC)c4)cc3)ncc2F)c1 | > 7 | 3.5 | > 7 | > 7
NCC(=O)Nc1ccc(-n2nc(C(F)(F)F)cc2-c2ccc3c(ccc4ccccc43)c2)cc1 | 2 | 3.5 | 4 | > 7
O=C(NCCCNc1nc(Nc2cccc(NC(=O)N3CCCC3)c2)ncc1I)c1cccs1 | > 7 | > 7 | > 7 | > 7
O=C(NCc1cccc(O)c1)Nc1nc(-c2ccncc2)cs1 | 2.5 | 2.5 | 6.5 | > 7
COc1cc2nccc(Oc3ccc(NC(=O)Nc4ccc(F)cc4F)c(F)c3)c2cc1OC | > 7 | 6 | > 7 | > 7
Cc1cc(C(C)Nc2ccccc2)c2nc(N3CCOCC3)cc(=O)n2c1 (stereo not given) | > 7 | > 7 | > 7 | > 7
Cc1nc(Nc2cnn(C3CCNCC3)c2)nc2c1N(C)C(=O)c1cc3ccccc3cc1N2C | 4 | 3 | 5.5 | 5.5
CNC(=O)c1cc(Oc2ccc(NC(=O)Nc3ccc(Cl)c(C(F)(F)F)c3)cc2)ccn1 [Sorafenib] | 5.5 | 3 | 4.5 | > 7
Nc1cc(C(F)(F)F)c(-c2cc(N3CCOCC3)nc(N3CCOCC3)n2)cn1 [Buparlisib (BKM120, NVP-BKM120)] | 4 | 2.5 | > 7 | > 7
Nc1cccc(-c2cc3c(Oc4cccc(O)c4)ncnc3[nH]2)c1 | 4.5 | 3 | > 7 | > 7
CSc1cccc(Nc2ncc3cc(-c4c(Cl)cccc4Cl)c(=O)n(C)c3n2)c1 | 3 | 2.5 | > 7 | > 7
Cc1ccc(NC(=O)c2cccc(C(C)(C)C#N)c2)cc1Nc1ccc2ncn(C)c(=O)c2c1 | > 7 | > 7 | > 7 | > 7
O=c1cc(N2CCOCC2)oc2c(-c3ccccc3)cccc12 | 3.5 | > 7 | > 7 | 4

Structure (SMILES) | time to death of most cells in well [1] | time to death of most cells in well ([2]; screen: 2) | time to death of most cells in well ([2]; screen: 3) | time to death of most cells in well ([2]; screen: 4)
CN(C(Cc1ccc(OS(=O)(=O)c2cccc3cnccc23)cc1)C(=O)N1CCN(c2ccccc2)CC1)S(=O)(=O)c1cccc2cnccc12 (stereo not given) | > 7 | > 7 | > 7 | > 7
CNC(=O)c1cc(Oc2ccc(NC(=O)Nc3ccc(Cl)c(C(F)(F)F)c3)c(F)c2)ccn1 [Regorafenib (BAY 73-4506)] | > 7 | 3 | 6 | > 7
Fc1cc(-c2cccc3ncc(-c4cnn(C5CCNCC5)c4)nc23)cc(F)c1CN1CCOCC1 | 5 | 3.5 | 2.5 | 3
CC(C)(C)c1cc(NC(=O)Nc2ccc(-c3cn4c(n3)sc3cc(OCCN5CCOCC5)ccc34)cc2)no1 [Quizartinib (AC220)] | 3 | > 7 | > 7 | > 7
Cc1cc(Nc2nc(N[C@@H](C)c3ncc(F)cn3)ncc2Cl)[nH]n1 | 3 | 5 | > 7 | > 7
COc1cccc2cc(-c3nc([C@H]4CC[C@H](C(=O)O)CC4)n4ncnc(N)c34)[nH]c12 | > 7 | 4 | > 7 | > 7
CNc1nc(Nc2cnn(C3CCN(C4COC4)CC3F)c2Cl)ncc1C(F)(F)F (stereo not given) | 6.5 | 3 | > 7 | > 7
O=C1Nc2ccc(I)cc2C1=Cc1cc(Br)c(O)c(Br)c1 | > 7 | > 7 | > 7 | > 7
C[C@@H]1CCN(C(=O)CC#N)C[C@@H]1N(C)c1ncnc2[nH]ccc12 | 3.5 and > 7 |  | > 7 | > 7
CC1(COc2ccc3c(c2)ncn3-c2ccc3cccc(N4CCC(N)CC4)c3n2)COC1 | > 7 | 6.5 | 2 | 3.5
NC(=O)c1ncn([C@@H]2O[C@H](CO)[C@@H](O)[C@H]2O)c1N [AICAR (Acadesine)] | 6.5 | > 7 | > 7 | > 7
CN(C)Cc1cccc(N=C(c2ccccc2)c2c(O)[nH]c3cc(C(N)=O)ccc23)c1 | 3 | 3 | > 7 | > 7
CC(C)NC[C@@H](C(=O)N1CCN(c2ncnc3c2[C@H](C)C[C@H]3O)CC1)c1ccc(Cl)cc1 [Ipatasertib (GDC-0068)] | 1 | 3.5 | > 7 | > 7
Cn1c(Nc2ccc(C(F)(F)F)cc2)nc2cc(Oc3ccnc(-c4ncc(C(F)(F)F)[nH]4)c3)ccc21 | 6 | 3 | 4.5 | > 7
C=CC(=O)Nc1ccc(CN2C(=O)N(c3cc(OC)cc(OC)c3)Cc3cnc(Nc4ccc(N5CCN(C)CC5)cc4)nc32)cc1 | 1.5 | 3 | 4.5 | > 7
COc1cccc(-n2c(=O)[nH]c3cc(Cl)n(-c4ccc(-c5cccc(OC)c5O)cc4)c3c2=O)c1 | > 7 | > 7 | > 7 | > 7
CCC[C@H](NC(=O)/C(C#N)=C/c1cccc(Br)n1)c1ccccc1 [Degrasyn (WP1130)] | 0 | 1 | 2.5 | > 7
